Laboratory results as given in PubChem BioAssay AID686978 (National Center for Advancing Translational Sciences (NCATS), 2013).
Out of some 420,000 compounds screened, about 64,000 (15%) were called active. The shares of active, inactive and inconclusive entries below differ from those in the screen. The call rests on the fitted dose curve; in most records, active means well fitted inhibition curve with a large enough effect; inconclusive means small, poorly fitted or top-dose-only effect; inactive means flat fitted curve, though single readings scatter. Potencies of inconclusive entries are left out as doubtful fits.
Potency means the concentration at half of the fitted maximal effect; tags describe the fitted curve by direction and shape.

Assay: qHTS for Inhibitors of human tyrosyl-DNA phosphodiesterase 1 (TDP1): qHTS in cells in absence of CPT; further: nearly all actives have a fitted effect of over 55% in size
Details: DT40 Tdp1-/- hTDP1 cells, no CPT, ATP luminescence, 48 h; series mostly up to 46.2 µM
Summary of the method: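 Readout: luminescence from CellTiter-Glo after 30 min in the dark at RT. Cells: DT40 Tdp1-/- with stable hTDP1, 400/well. Exposure: compounds alone, ≥48 hr, 37 °C.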
For `COc1ccc(C/C(C)=N/NC(=S)Nc2ccc(C)c(C)c2)cc1`, the Potency was active: 16.4 µM. For `O=C(CCn1c(=O)c2cccn2c2cccnc21)NCc1ccccc1Br`, the Potency was “inactive”. With `Cc1ccc(Cn2c(C)nc3ccc([N+](=O)[O-])cc3c2=O)cc1` the Potency was active: 20.6 µM. In the case of `C/C(=N\NC(=O)CSc1nc2ccccc2s1)c1ccco1`, the Potency is reported as inconclusive [inhibitor, single point]. For `COc1cccc(CN(C)Cc2nc(C3CC3)no2)c1`, the Potency was “inactive”. With `CCC(CC)C(=O)Nc1ccc(C(=O)OCc2cc(=O)n3nc(C4CC4)sc3n2)cc1` the Potency was inconclusive [inhibitor, single point]. With `COC(=O)c1cc(S(=O)(=O)NCC2CCN(Cc3ccc(Cl)cc3)CC2)cn1C` the Potency was inconclusive [inhibitor, single point]. In the case of `CSCCC(NS(=O)(=O)c1ccccc1F)C(=O)NCCCn1nc(C)cc1C` (stereo not drawn), the Potency is reported as “inactive”. With `C/C(N)=C(/C#N)C(=O)CSc1cc(C)c2cc(C)cc(C)c2n1` the Potency was inconclusive [inhibitor, single point]. For `Cc1ccc(S(=O)(=O)CC(O)COc2ccc(F)cc2Cl)cc1` (stereo not drawn), the Potency was inconclusive [inhibitor, single point]. In the case of `CC(=O)[C@H]1CC[C@H]2[C@@H]3CC=C4C[C@@H](OS(=O)(=O)O)CC[C@]4(C)[C@H]3CC[C@]12C`, the Potency is reported as “inactive”. For `CN(CC(=O)NCc1ccccc1Cl)CC(=O)Nc1ccccc1Br`, the Potency was inconclusive [inhibitor, single point]. With `COc1cccc(CNC(=O)CN2N=C(c3ccc(C)cc3)CCC2=O)c1` the Potency was “inactive”. In the case of `CCOC(=O)c1cccc(NC(=O)C2CCCN(c3nnc(N4CCCC4=O)s3)C2)c1` (stereo not drawn), the Potency is reported as “inactive”. In the case of `COc1ccc(-c2nc3ncnn3cc2C)cc1F`, the Potency is reported as “inactive”. For `CC(C)C(C)(C#N)NC(=O)CSc1nncn1-c1ccccc1` (stereo not drawn), the Potency was “inactive”. For `O=C(Nc1ccccc1)Nc1scc2c1c(=O)oc1ccccc12`, the Potency was inconclusive [inhibitor, partial curve]. With `COc1ccc2[nH]c(C(=O)N/N=C/c3cc(OC)c(OC)c(OC)c3)cc2c1` the Potency was inconclusive [inhibitor, single point]. For `COc1ccc(CC(=O)O/N=C(\N)c2ccc(OC)cc2)cc1`, the Potency was inconclusive [inhibitor, single point]. For `CCOCCn1c(COc2ccccc2)nc2ccccc21`, the Potency was inconclusive [inhibitor, single point]. In the case of `Cc1sc2ccccc2[n+]1CCCCBr`, the Potency is reported as active: 5.62 µM. In the case of `COc1ccccc1C1OCC(C)([N+](=O)[O-])CO1` (stereo not drawn), the Potency is reported as inconclusive [inhibitor, single point]. In the case of `Cc1ccc(C(=O)/C=C/Nc2ccc(S(=O)(=O)Nc3cc(C)nc(C)n3)cc2)cc1`, the Potency is reported as inconclusive [inhibitor, single point]. With `O=C(Nc1cccc(S(=O)(=O)N2CCCCC2)c1)C1CCN(C(=O)c2ccc(Cl)cc2)CC1` the Potency was inconclusive [inhibitor, single point]. With `CC(=O)c1cccc(NC(=O)C2CCN(C(=O)c3ccc([N+](=O)[O-])cc3)CC2)c1` the Potency was inconclusive [inhibitor, single point]. With `O=C1/C(=C/c2ccc(Br)cc2)Oc2cc(O)ccc21` the Potency was inconclusive [inhibitor, partial curve]. In the case of `OCCN=C1CCCc2c1[nH]c1ccc(Br)cc21`, the Potency is reported as inconclusive [inhibitor, partial curve]. With `CCOc1ccc(CN2CCN(c3ncnc4scc(-c5ccccc5)c34)CC2)cc1` the Potency was active: 8.2 µM. With `COc1ccc(-c2cc(C(=O)N(C)CC(=O)Nc3ccccc3Br)c3ccccc3n2)cc1OC` the Potency was active: 18.4 µM. In the case of `O=C1c2ccc(Oc3cccc([N+](=O)[O-])c3)cc2C(=O)N1c1ccccn1`, the Potency is reported as inconclusive [inhibitor, single point]. In the case of `CC(C)(C)OC(=O)N1CCC[C@@H]1CO`, the Potency is reported as “inactive”. With `Fc1cccc(CNC2CCN(CCc3ccccc3)CC2)c1` the Potency was inconclusive [inhibitor, single point]. For `O=C1c2cccc(NCCCNCCO)c2C(=O)c2cccc(NCCCNCCO)c21`, the Potency was active: 5.8 µM. In the case of `CCC(C(=O)N1CCN(c2cc(Cl)ccc2C)CC1)n1nc(C)c2sc3ccccc3c2c1=O` (stereo not drawn), the Potency is reported as “inactive”. With `CCOC(=O)c1cnc2c(OC)cccc2c1N1CCN(c2ccccc2OC)CC1` the Potency was active: 13 µM. With `CCO[C@@H]1OC(C(=O)N2CCOCC2)=C[C@H](c2ccc(C(F)(F)F)cc2)[C@H]1CCCO` the Potency was inconclusive [inhibitor, single point]. With `O=C(Nc1ccnn1C1CCN(C(=O)Cc2ccccc2F)CC1)C1CC1` the Potency was “inactive”. With `COc1ccc(S(=O)(=O)NCc2cccnc2)cc1NC(=O)c1ccc(C)cc1` the Potency was inconclusive [inhibitor, single point]. With `O=C(COc1ccc([N+](=O)[O-])cc1Cl)Nc1ccc2[nH]c(=O)[nH]c2c1` the Potency was “inactive”. With `CSc1nccc(NC(=O)c2cccc(Br)c2)n1` the Potency was active: 20.6 µM. With `CCCCC(=O)Nc1c2c(nn1-c1cccc(C)c1C)CS(=O)(=O)C2` the Potency was “inactive”. In the case of `CC1=C(C(=O)Nc2cccnc2)C(c2ccccc2)n2nc(SCc3ccccc3)nc2N1` (stereo not drawn), the Potency is reported as “inactive”. For `CC(C)OC(=O)c1nnn(-c2nonc2N)c1CSc1ccccn1`, the Potency was inconclusive [inhibitor, single point]. For `CCC(=O)N1CCc2cc(CNS(=O)(=O)c3c(C)cc(C)cc3C)ccc21`, the Potency was active: 20.6 µM. For `Cc1ccc(Cn2nnc3sc4c(c3c2=O)CCC(C)C4)cc1` (stereo not drawn), the Potency was inconclusive [inhibitor, single point]. For `COc1ccccc1CC(=N)N1C[C@@H]2C(=O)CCC(c3ccccc3)(c3ccccc3)[C@@H]2C1`, the Potency was active: 21.1 µM. For `Cc1cccc(N2CCN(C(=O)Cn3ccc4ccccc4c3=O)CC2)c1C`, the Potency was inconclusive [inhibitor, single point]. With `Cc1ccc2nc(-c3ccc(NC(=O)COC(=O)c4ccco4)cc3)sc2c1` the Potency was inconclusive [inhibitor, single point].
